# Laboratory results published in PubChem BioAssay AID588342 (National Center for Advancing Translational Sciences (NCATS), 2011).
# In all, about 360,000 compounds went through this assay and about 25,000 (6.9%) were called active. Inconclusive means that the source gave no clear call. Such entries were picked first, then a sample of the others. Calls come from the whole dose curve; as a rule, active = well fitted inhibition curve with a large enough effect; inconclusive = small, poorly fitted or top-dose-only effect; inactive = flat fitted curve, though single readings scatter. Potencies beside an inconclusive call are fits to weak or partial responses and may not hold up.
# Target: Luciferin 4-monooxygenase (Photinus pyralis) (UniProt P08659)
# Sequence of UniProt P08659 (P08659 whole entry, looked up): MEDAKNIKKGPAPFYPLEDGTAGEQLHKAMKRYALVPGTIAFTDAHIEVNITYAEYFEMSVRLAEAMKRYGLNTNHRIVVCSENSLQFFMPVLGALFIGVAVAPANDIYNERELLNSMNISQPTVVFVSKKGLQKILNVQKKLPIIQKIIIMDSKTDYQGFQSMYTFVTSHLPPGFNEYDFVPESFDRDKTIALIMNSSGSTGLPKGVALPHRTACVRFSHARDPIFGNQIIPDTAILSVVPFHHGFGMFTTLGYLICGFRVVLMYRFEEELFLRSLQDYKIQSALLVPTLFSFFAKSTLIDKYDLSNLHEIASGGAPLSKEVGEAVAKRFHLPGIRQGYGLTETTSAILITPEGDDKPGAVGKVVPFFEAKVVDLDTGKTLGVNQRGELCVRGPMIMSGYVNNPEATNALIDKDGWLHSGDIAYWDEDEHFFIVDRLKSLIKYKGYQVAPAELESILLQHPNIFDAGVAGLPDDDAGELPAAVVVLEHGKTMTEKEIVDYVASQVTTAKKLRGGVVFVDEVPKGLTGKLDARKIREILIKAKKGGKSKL
# Assay: qHTS profiling assay for firefly luciferase inhibitor/activator using purifed enzyme and Km concentrations of substrates (counterscreen for miR-21 project); note: nearly all actives have a fitted effect of over 55% in size;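 for activity change, negative = inhibition: plate controls were vehicle for no effect and reference inhibitor for full effect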
# Conditions: purified FLuc, luminescence inhibition; activity change, negative = inhibition: at 57.5 µM (top of the series)
# Procedure, shortened: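 Purified P. pyralis luciferase, 10 nM final, with Km-level 10 uM D-luciferin and 10 uM ATP in 50 mM Tris acetate pH 7.5, 10 mM Mg acetate, 0.01% Tween-20, 0.05% BSA; 6-point qHTS titration about 60 µM downward; luminescence read.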
# Potency is the fitted concentration of half-maximal effect; tags give direction and shape of the fitted curve.
SMILES,Potency,"activity change, negative = inhibition"
O=C(CSc1nnnn1-c1cccc(C(=O)O)c1)NC(c1ccccc1)c1ccccc1,"inconclusive: 26.9 µM [inhibitor, partial curve, poor fit]",
COCc1cc(=O)[nH]c(Cc2c(Cl)cccc2Cl)n1,,inactive: -1.36%
CCOC(=O)Cc1csc(NC(=O)C(C)(C)CC)n1,"inconclusive: 30.1 µM [inhibitor, single point]",
Cc1cccc(Oc2nc(-c3ccccn3)nc3ccccc23)c1,"inconclusive: 26.9 µM [inhibitor, single point]",
COc1ccc(-c2nc(C)c(C(C)=O)n2O)cc1OC,"inconclusive: 19 µM [inhibitor, partial curve]",
COCC1CCCCN1C(=O)c1cccc(OC2CCN(C(=O)C3CC3)CC2)c1 (configuration not stated),"inconclusive: 19 µM [inhibitor, partial curve]",
Cc1ccc(C)c(C(=O)O/N=C(\N)c2ccc(Br)cc2)c1,active: 15.1 µM,
Cc1cccc(NC(=O)[C@@H]2CCCN2C(=O)OC(C)(C)C)c1,,inactive: -0.256%
CC1Sc2ccc(C(=O)NCc3ccccn3)cc2NC1=O (configuration not stated),"inconclusive: 26.9 µM [inhibitor, partial curve, poor fit]",
Cc1ccc(CNC(=O)Cc2ccc(NC(=O)N3CCSc4ncccc43)cc2)cc1,"inconclusive: 37.9 µM [inhibitor, single point]",
O=c1[nH]n(-c2ccc(Cl)cc2)c2ncccc12,"inconclusive: 21.3 µM [inhibitor, partial curve, poor fit]",
COc1ccc(C(=O)Nn2cnc3scc(-c4cccs4)c3c2=O)c(O)c1,active: 15.1 µM,
O=C(O)COc1ccc(/C=N/NC(=O)c2cn(-c3ccccc3)nc2-c2ccccc2)cc1,active: 4.78 µM,
O=C1NN(c2ccccc2)C(=O)C2C3C=CC(C4CC34)C12 (configuration not stated),"inconclusive: 37.9 µM [inhibitor, partial curve, poor fit]",
CCOc1ccccc1NC(=O)CN1C(=O)COc2ccc(S(=O)(=O)NC3CCCC3)cc21,,inactive: -6.36%
O=C(Nc1sc2c(c1C(=O)O)CCC2)c1ccco1,"inconclusive: 23.9 µM [inhibitor, single point]",
CC#CCCCC(=O)Nc1ccc(C(=O)O)cc1,,inactive: -0.696%
Cc1ccc(C(=O)Nc2cccc(C(F)(F)F)c2)cc1NC(=O)c1ccno1,"inconclusive: 19 µM [inhibitor, single point]",
CCC(=O)Oc1ccc(C(=O)Nc2ccc3c(c2)OCO3)cc1,active: 5.36 µM,
COC(=O)c1ccc(Nc2ncnc3sccc23)cc1,"inconclusive: 30.1 µM [inhibitor, single point]",
CCc1cc2c(cc3c(=O)n(CCCC(=O)NCc4cccc(Br)c4)ncn32)s1,"inconclusive: 15.1 µM [inhibitor, partial curve]",
CCc1nnc(NC(=O)c2ccc(COc3cccc(C)c3)o2)s1,,inactive: -2.28%
O=C(Nc1ccc(Br)cc1)c1cnccn1,"inconclusive: 21.3 µM [inhibitor, partial curve]",
COCc1cc(C)n(CC(=O)Nc2ccccc2OC)c(=O)c1C#N,,inactive: 2.18%

SMILES,Potency,"activity change, negative = inhibition"
Cc1ccc(NC(=O)C(CC(C)C)N2Cc3ccccc3C2=O)cc1F (configuration not stated),,inactive: 1.14%
CCCCC(CC)CNC(=O)Cc1ccc(-n2c(=O)[nH]c3ccccc3c2=O)cc1 (configuration not stated),"inconclusive: 23.9 µM [inhibitor, partial curve, poor fit]",
O=c1[nH]n(Cc2ccccc2)c(=O)c2ccccc12,"inconclusive: 37.9 µM [inhibitor, partial curve, poor fit]",
Cc1cc(C)n(-c2ccc(C(=O)Nc3ccccn3)cc2)n1,active: 6.01 µM,
CC(=O)N1c2ccc(S(=O)(=O)Nc3ccc(C)c(Cl)c3)cc2CC1C (configuration not stated),"inconclusive: 19 µM [inhibitor, partial curve, poor fit]",
O=C(N/N=C/c1ccc(OC(F)F)cc1OC(F)F)c1ccc(Br)cc1,,inactive: -7.9%
CSC(=S)N/N=C(\C)c1ccc(Br)cc1,"inconclusive: 37.9 µM [inhibitor, partial curve, poor fit]",
COc1cccc(/C=C2\N=C(C3CCCCC3)OC2=O)c1OC,active: 15.1 µM,
Cc1nc(-c2ccc(C(=O)NCCO)cc2)cs1,"inconclusive: 37.9 µM [inhibitor, partial curve, poor fit]",
N#Cc1ccc(C(=O)NC2CCCCCCC2)cc1,active: 21.3 µM,
CCCC(C(=O)Nc1ccc2c(C)cc(=O)oc2c1)c1ccccc1 (configuration not stated),,inactive: 9.34%
O=C(/C=C/c1cccnc1)c1ccc(O)cc1,"inconclusive: 16.9 µM [inhibitor, partial curve]",
C/C(=N\N=c1/scc(C)n1Cc1ccco1)c1cccc([N+](=O)[O-])c1,"inconclusive: 37.9 µM [inhibitor, partial curve, poor fit]",
COc1ccccc1CCNC(=O)C1CCC(=O)N(Cc2cccc(F)c2)C1 (configuration not stated),"inconclusive: 21.3 µM [inhibitor, single point]",
CCCc1nc2cc(CC(=O)OC)ccc2o1,"inconclusive: 19 µM [inhibitor, partial curve, poor fit]",
CC(=O)Nc1ccccc1-c1nc2ccccc2n(CC(=O)Nc2cccc(C)c2C)c1=O,,inactive: -2.04%
COCCN(C(=O)c1ccco1)c1nnc(-c2ccc(F)cc2)s1,"inconclusive: 19 µM [inhibitor, partial curve]",
COC(=O)c1ccc(-c2ncc[nH]2)cc1,"inconclusive: 26.9 µM [inhibitor, single point]",
Cc1cccc(OCC(=O)Nc2ccc3c(C)cc(=O)oc3c2)c1,,inactive: 2.07%
O=C1CC(=O)N(CCNc2ncc(C(F)(F)F)cc2Cl)C(=O)N1,,inactive: -10.8%
CC1=C(C#N)C(=O)NC(=O)/C1=C/c1ccc(-c2ccc(S(N)(=O)=O)cc2)o1,"inconclusive: 26.9 µM [inhibitor, single point]",
CCCCCc1nnc(NC(=O)c2ccc(=O)n(C)n2)s1,"inconclusive: 30.1 µM [inhibitor, partial curve, poor fit]",
O=C(NCCc1ccccc1)c1ccc(Cl)c([N+](=O)[O-])c1,"inconclusive: 26.9 µM [inhibitor, partial curve]",
